Measured values as given in PubChem BioAssay AID2546 (National Center for Advancing Translational Sciences (NCATS), 2010).
Among all 310,000 compounds or so, about 11,000 (3.5%) were called active. The shares of active, inactive and inconclusive entries below differ from those in the screen. Calls come from the whole dose curve; as a rule, active = well fitted inhibition curve with a large enough effect; inconclusive = small, poorly fitted or top-dose-only effect, or effect the other way; inactive = flat fitted curve, though single readings scatter. Potencies of inconclusive entries are left out as doubtful fits. Some structures have more than one record in an assay (separate samples or runs), and their calls can disagree.

Test: VP16 counterscreen qHTS for inhibitors of ROR gamma transcriptional activity;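 note: Gal4-VP16 expression switched on by copper sulfate through the metallothionein promoter; nearly all actives have a fitted effect of over 50% in size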
Settings: Drosophila S2 Gal4-VP16 UAS-luciferase, luminescence, 20 h; activity, negative = inhibition: at 53.6 µM (top of the series)
% is set by controls: 0 for no effect and ±100 for the full control effect; potency is the fitted concentration of half-maximal effect; tags give direction and shape of the fitted curve.

Row | Compound | Potency | activity, negative = inhibition
1 | COc1ccc(NC(=O)CSc2ncc(-c3ccc(F)cc3)n2Cc2ccco2)cc1 | inconclusive [inhibitor, single point] | –
2 | CC(C)(C)C(=O)N1CCc2cc(-c3csc(N)n3)ccc21 | active: 10 µM | –
3 | CCCCc1ccc(NC(=S)NCC2CCCO2)cc1 (stereo not drawn) | inconclusive [inhibitor, single point] | –
4 | CC(C)c1ccc(S(=O)(=O)Nc2ccc(SC(F)F)cc2)cc1 | inconclusive [inhibitor, single point] | –
5 | COC(=O)CCC(=O)NC(=S)Nc1c(C)cccc1C | inconclusive [inhibitor, single point] | –
6 | Cn1nnc(NC(=S)NC(=O)c2cc(Cl)ccc2Cl)n1 | active: 2 µM | –
7 | O=C(NCc1cccc(F)c1)c1ccc2nc(N3CCOCC3)sc2c1 | inconclusive [inhibitor, single point] | –
8 | FC(F)Sc1ccc(Nc2ncnc3nc[nH]c23)cc1 | inconclusive [activator, partial curve] | –
9 | COc1ccc(/C=C2\CN(Cc3ccccc3)C/C(=C\c3ccc(OC)cc3)C2=O)cc1 | inconclusive [inhibitor, partial curve] | –
10 | NC(=NCCCCCCN=C(N)/N=C(\N)Nc1ccc(Cl)cc1)/N=C(\N)Nc1ccc(Cl)cc1 | active: 15.8 µM | –
11 | Cc1ccc(NC(=O)C2CCCN2C(=O)OCc2ccccc2)c(O)c1 (stereo not drawn) | inactive | –
12 | COc1ccccc1C1CC(=O)NC(SCC(=O)Nc2ccccc2)=C1C#N (stereo not drawn) | inactive | –
13 | Cc1cc(C)c(S(=O)(=O)NCC2CCC(C(=O)NCCCN3CCC(C)CC3)CC2)c(C)c1 (stereo not drawn) | inactive | –
14 | CC(C)(C)C(=O)C(Oc1ccc(Cl)cc1)n1ccnc1 (stereo not drawn) | inactive | –
15 | CC(=C/c1ccccc1)/C=N/NC(=O)c1cc(C)oc1C | inconclusive [inhibitor, single point] | –
16 | CN(C)c1ccc(/C=C/C=N/Nc2nc(N3CCOCC3)nc(N3CCOCC3)n2)cc1 | – | inactive: 0.725% [at 10 µM]
17 | COc1ccc(-c2oc3ccccc3c(=O)c2OC(C)=O)cc1 | inconclusive [inhibitor, single point] | –
18 | CCCn1c(C2CCCN2c2nc(C)cs2)nc2cc(Cl)c(Cl)cc21 (stereo not drawn) | inconclusive [inhibitor, single point] | –
19 | CC(C)(C)C(=O)OCc1nc(-c2ccc(O)c(O)c2)cs1 | inconclusive [inhibitor, partial curve] | –
20 | CCc1sc(C(=O)Nc2nc(C)cs2)cc1C | active: 11.2 µM | –
21 | CC1=Nc2ccccc2N=C(N)C1c1ccccc1 (stereo not drawn) | inconclusive [activator, full curve, poor fit] | –
22 | Cc1cccc(N(O)C(=O)Nc2cccc(Cl)c2)c1 | inconclusive [activator, partial curve] | –
23 | CC(=O)N1CC(C)Sc2ccc(S(=O)(=O)NCc3ccccc3Cl)cc21 (stereo not drawn) | inactive | –
24 | CCOC(=O)c1cnc(SSc2ncc(C(=O)OCC)c(N)n2)nc1N | active: 11.2 µM | –
25 | O=C(CN1CCN(Cc2ccccc2)CC1)Nc1ccc([N+](=O)[O-])cc1C(=O)Nc1ccccc1F | inconclusive [inhibitor, single point] | –

Row | Compound | Potency | activity, negative = inhibition
26 | Cc1c(C#N)c(N=CN(C)C)c(C(=O)c2ccccc2)n1-c1ccc(Br)cc1 | inactive | –
27 | CC1CCCCN1CCNC(=O)c1ccc2c(=O)n(Cc3ccc(Cl)cc3)c(=S)[nH]c2c1 (stereo not drawn) | inconclusive [inhibitor, single point] | –
28 | Clc1ccc(-c2nc3nc4ccccc4nc3n2Cc2ccco2)cc1 | inconclusive [inhibitor, single point] | –
29 | COCCN(Cc1nc(-c2ccc(-c3ccccc3)cc2)oc1C)C(C)C | inconclusive [inhibitor, single point] | –
30 | CCOc1c(Cl)cc(/C=N/NC(N)=S)cc1OC | active: 15.8 µM | –
31 | COc1ccc2c(c1)[n+](=O)c(C(C)=O)c(C)n2[O-] | inactive | –
32 | C#Cc1ccc([C@H]2C=C(C(=O)NC3CC3)O[C@@H](OCC)[C@@H]2CCCO)cc1 | inactive | –
33 | Cc1ccc(S(=O)(=O)CC(=O)N2CCN(c3ccc(F)cc3)CC2)cc1 | inconclusive [inhibitor, single point] | –
34 | COc1ccc2cc3c(N)nn(C(=O)c4cccc(F)c4)c3nc2c1 | inconclusive [inhibitor, partial curve, poor fit] | –
35 | COc1ccc(NC(=O)NCCN2CCN(c3cc(OC)ccc3OC)CC2)cc1 | inactive | –
36 | CCc1ccc2c(c1)C(c1ccc([N+](=O)[O-])cc1)=NNC(c1ccc(F)cc1)=N2 | inconclusive [activator, single point] | –
37 | O=C(CN1CCN(c2ccccn2)CC1)Nc1ccc2ccccc2c1 | inactive | –
38 | O=C(CN1CCC(O)(c2ccccc2F)CC1)NCCc1c[nH]c2ccccc12 | inactive | –
39 | O=C1c2ccccc2C(=O)N1OCc1cccc(Cl)c1 | inconclusive [inhibitor, single point] | –
40 | COc1ccc(-n2c(Cc3cccn3C)nnc2SCC(=O)NC2CCCCC2)cc1 | inactive | –
41 | OC1CCCN(Cc2ccc3ccc4cccc5ccc2c3c45)C1 (stereo not drawn) | inactive | –
42 | C=CCc1cccc(/C=N/NC(=O)C(C)Nc2cccc(C)c2)c1O (stereo not drawn) | active: 2.51 µM | –
43 | O=C(NCC(c1cccs1)N1CCOCC1)c1ccccc1NS(=O)(=O)c1cc([N+](=O)[O-])ccc1Cl (stereo not drawn) | inconclusive [inhibitor, single point] | –
44 | C=C(C(=O)c1ccccc1)C(C)C(=C)C(=O)c1ccccc1 | active: 11.2 µM | –
45 | COc1cc(CNCc2ccncc2)cc(Br)c1OCc1ccccc1F | inconclusive [inhibitor, single point] | –
46 | O=C1c2ccccc2C(=O)C1c1ccc2ccccc2n1 | active: 3.98 µM | –
47 | CC(=O)Sc1nc(-c2ccccc2)[nH]c1S(=O)(=O)c1ccc(C)cc1 | inactive | –
48 | S=c1ccss1 | inconclusive [inhibitor, single point] | –
49 | COc1ccc(-c2n[nH]c(C)c2-c2cnn(-c3ccccc3)c2)c(O)c1 | inconclusive [inhibitor, single point] | –
50 | S=C(N/N=C/c1ccc(Br)cc1)N1CCCCC1 | active: 0.891 µM | –

Row | Compound | Potency | activity, negative = inhibition
51 | O=C(NC1CCN(C(=S)Nc2ccccc2Cl)CC1)C1CCCCC1 | inactive | –
52 | CCN(CC)C(=O)c1ccc2c(=O)n(Cc3ccc4c(c3)OCO4)c(=S)[nH]c2c1 | inconclusive [inhibitor, single point] | –
53 | CC(=O)C1=C(O)C(=O)N(c2ccc(S(N)(=O)=O)cc2)C1c1cccc([N+](=O)[O-])c1 (stereo not drawn) | inactive | –
54 | Cc1ccc(N/C(C(Cl)=C(Cl)Cl)=C(/Cl)[N+](=O)[O-])c(C)c1 | inactive | –
55 | COC(=O)CC1[C@@]2(C)C[C@@]34OC5(C)OC6(CC[C@@]7(C)C(c8ccoc8)OC(=O)C(C(C)=O)C7[C@]6(O5)C(O)[C@@]3(O)C2O)[C@]14C (stereo partly drawn) | inactive | –
56 | Cn1nccc1C(=O)NC1CCCc2c1cnn2-c1ccc(C(C)(C)C)cc1 (stereo not drawn) | active: 2.51 µM | –
57 | CS(=O)(=O)c1ccc(C(=O)OCC(=O)NC(=O)C2CCCCC2)cc1[N+](=O)[O-] | inconclusive [inhibitor, single point] | –
58 | CCN(CC)CC(=O)c1ccc(-c2ccccc2)cc1 | inconclusive [inhibitor, single point] | –
59 | O=C(NCCCn1ccnc1)c1cc2nc(-c3ccc(Br)cc3)cc(C(F)(F)F)n2n1 | inactive | –
60 | COC(=O)CNC(=O)[C@@]1(Cc2ccccc2)C=C[C@@H](C)N1C(=O)c1ccccc1 | inconclusive [activator, single point] | –
61 | O=C(N/N=C/c1ccc([N+](=O)[O-])s1)C(O)c1ccccc1 (stereo not drawn) | inconclusive [inhibitor, partial curve] | –
62 | COc1ccc(NS(=O)(=O)c2ccc3oc(SC(C)C(N)=O)nc3c2)cc1 (stereo not drawn) | inconclusive [inhibitor, single point] | –
63 | O=C1CN=C(Nc2ccccc2Cl)N1c1ccccc1 | inconclusive [inhibitor, full curve, poor fit] | –
64 | Cn1cc(C(=O)N/N=C/C(Br)=C/c2ccccc2)ccc1=O | inconclusive [inhibitor, single point] | –
65 | C/C(=N\NC(=S)NCc1ccccc1)c1ccc(C#N)cc1 | active: 7.08 µM | –
66 | O=[N+]([O-])c1ccc(Sc2nccn2Cc2ccccc2)c([N+](=O)[O-])c1 | inconclusive [inhibitor, single point] | –
67 | Cc1noc(/C=C/N(C)C)c1S(=O)(=O)N(C)CC(=O)NC1CCCCC1 | inconclusive [inhibitor, single point] | –
68 | COc1ccc(OC)c(/C(O)=C/C(=O)C(=O)Nc2cc(C)cc(C)c2)c1 | active: 17.8 µM | –
69 | O=C(O)CCCN1C(=O)/C(=C\c2ccco2)SC1=S | active: 1.26 µM | –
70 | Cc1cccc(NC(=O)CC2SC(=O)N(c3ccccc3)C2=O)c1 (stereo not drawn) | inconclusive [inhibitor, single point] | –
71 | Cc1cc(C(=O)c2ccc(Cl)cc2)c(NC(=O)CCl)s1 | inconclusive [inhibitor, single point] | –
72 | Cc1ccc(C)c(NC(=S)NC(NC(=O)Cc2cccc3ccccc23)C(Cl)(Cl)Cl)c1 (stereo not drawn) | inconclusive [inhibitor, partial curve] | –
73 | Oc1[nH]c2c(Cl)cc(Cl)cc2c1N=NC(=S)NCC1CCCO1 (stereo not drawn) | active: 1.12 µM | –
